Reference: PMC4336329 (PLoS ONE, 2015)
Out of some 310,000 compounds screened, about 14,000 (4.5%) showed an effect of 50% or more. Effects have a minus sign here. The list shows a part of the results.

The compounds below were run against human ether-à-go-go-related gene (hERG) potassium channel (human, UniProt Q12809) (assay: primary screen, population patch clamp on CHO cells stably expressing hERG).
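Note: peak tail current of the secondary pulse compared with the same well before compound.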

human ether-à-go-go-related gene (hERG) potassium channel, sequence (Q12809 whole entry, looked up): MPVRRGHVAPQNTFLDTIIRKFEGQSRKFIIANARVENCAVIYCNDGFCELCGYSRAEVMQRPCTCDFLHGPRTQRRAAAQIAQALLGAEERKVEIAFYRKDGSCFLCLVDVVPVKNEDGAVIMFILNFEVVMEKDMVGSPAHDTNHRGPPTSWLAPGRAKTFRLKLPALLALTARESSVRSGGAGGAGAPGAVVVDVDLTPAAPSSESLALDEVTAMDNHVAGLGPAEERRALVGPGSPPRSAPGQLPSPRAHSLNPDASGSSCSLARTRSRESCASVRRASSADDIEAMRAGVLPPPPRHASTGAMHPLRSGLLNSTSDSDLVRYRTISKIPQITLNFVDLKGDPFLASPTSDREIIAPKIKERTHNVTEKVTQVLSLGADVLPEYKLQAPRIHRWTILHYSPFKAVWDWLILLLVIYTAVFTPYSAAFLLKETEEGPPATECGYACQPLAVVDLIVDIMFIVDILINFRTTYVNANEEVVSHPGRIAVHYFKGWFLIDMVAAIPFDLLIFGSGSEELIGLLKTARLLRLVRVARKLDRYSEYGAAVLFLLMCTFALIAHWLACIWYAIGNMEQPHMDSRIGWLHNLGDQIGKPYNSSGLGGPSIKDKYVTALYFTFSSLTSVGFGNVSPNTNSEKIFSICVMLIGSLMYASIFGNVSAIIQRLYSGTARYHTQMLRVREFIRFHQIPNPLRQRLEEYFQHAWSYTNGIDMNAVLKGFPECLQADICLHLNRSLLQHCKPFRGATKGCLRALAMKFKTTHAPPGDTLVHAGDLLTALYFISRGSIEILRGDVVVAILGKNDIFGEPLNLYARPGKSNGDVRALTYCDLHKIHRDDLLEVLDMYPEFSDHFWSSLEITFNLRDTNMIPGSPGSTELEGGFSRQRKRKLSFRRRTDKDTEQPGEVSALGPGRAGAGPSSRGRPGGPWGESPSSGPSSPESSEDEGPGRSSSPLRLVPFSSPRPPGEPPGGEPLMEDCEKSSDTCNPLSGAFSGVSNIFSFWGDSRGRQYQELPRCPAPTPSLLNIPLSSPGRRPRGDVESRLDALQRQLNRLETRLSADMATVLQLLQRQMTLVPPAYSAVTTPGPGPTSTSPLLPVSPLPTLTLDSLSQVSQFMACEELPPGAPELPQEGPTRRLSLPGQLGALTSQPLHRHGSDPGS

Row | Structure (SMILES) | hERG current change (%, negative = inhibition) at 10uM [%]
1 | COc1ccc(CCN(C(=O)/C=C/C(=O)O)C2CC(=O)N(c3ccccc3)C2=O)cc1 (centres unmarked) | 12.5
2 | O=C(Nc1ccc(Cl)cc1)c1ccc2ncsc2c1 | 8.99
3 | CCOc1ccc(C(C)=O)cc1COc1ccc(C)nc1[N+](=O)[O-] | 3.57
4 | CC1CC(C)(C)N2C(=O)C3(Nc4ccccc4S3)c3cccc1c32 (centres unmarked) | 22.1
5 | N#CC1=C2N=C(N)c3ccccc3N2C2=C(C(=O)CCC2)C1c1ccc(Cl)cc1 (centres unmarked) | -13.6
6 | COC(=O)c1cccc(OCC(O)Cn2ccnc2)c1 (centres unmarked) | -3.46
7 | C=CCn1c(SCc2cc(=O)n3ccsc3n2)nc2scc(C3CC3)c2c1=O | -9.75
8 | Cc1cc(OCC(=O)NCc2cccnc2)c2c(C)c(Cc3ccccc3)c(=O)oc2c1 | -16.8
9 | Cc1ccc(S(=O)(=O)N2CCCCC2)cc1NC(=O)c1ccc2c(=O)n3c(nc2c1)CCCCC3 | -64.1
10 | NC(=O)C1CC=CCC1C(=O)OCC(Cl)=C(Cl)Cl (centres unmarked) | 22.9
11 | CC(C)N(Cc1ccccc1)C(=O)CSc1nccn1C | 11.9
12 | COC(=O)c1c(NC(=O)c2ccco2)sc(C(=O)Nc2ccc(F)cc2)c1C | 8.19
13 | CC(=O)Nc1ccc(C(=O)OCC(=O)N(C)C2CCCCC2)cc1 | 18.3
14 | CCC(C)C1=CC(=Nc2c(C)n(C)n(-c3ccccc3)c2=O)C=C(C(C)CC)C1=O (centres unmarked) | 8.91
15 | COC(=O)CNC(=O)COC(=O)c1cc(Cl)cc(Cl)c1N | -9.3
16 | CCn1c(CNC(=O)c2ccco2)nnc1SCC(=O)Nc1cccc(F)c1 | -10.8
17 | CC(=O)c1c(C)nn(C(C)CC(=O)O)c1C (centres unmarked) | -2.53
18 | COc1ccc(C2C=C(C34CC5CC(CC(C5)C3)C4)NC(=S)N2)cc1 (centres unmarked) | 3.44
19 | O=C(OCC(=O)N1CCCCCC1)c1n[nH]c(=O)c2ccccc12 | -4.37
20 | CC(=O)NNc1ncnc2c1cnn2-c1ccccc1 | -0.103
21 | COCCNC(=O)CSc1cc(-c2ccccc2)c2ccc(OC)cc2n1 | -42.6
22 | CCN1C(=O)/C(=C/c2ccc3c(c2)CCN3CCCCl)C(=O)NC1=S | -3.76

Row | Structure (SMILES) | hERG current change (%, negative = inhibition) at 10uM [%]
23 | COc1ccc(-c2noc(CN(C(=O)c3ccc4c(c3)OCO4)C(C)C)n2)cc1 | -6.46
24 | C=CCN1C(=O)/C(=C\c2ccc(C)cc2)N=C1SCC(=O)NCCC | -3.27
25 | O=C1CC2(CCN(S(=O)(=O)c3ccccc3F)CC2)Oc2ccccc21 | -84.6
26 | CC12CN3CC(C)(CN(C1)C3c1ccc3ccccc3c1O)C2=O (centres unmarked) | 7.44
27 | CCN(CC(=O)Nc1cc(Cl)ccc1C)C(=O)Cc1ccsc1 | -8.12
28 | COc1ccccc1NC(=O)NNC(=O)COc1ccc2ccccc2c1 | 7.24
29 | Clc1ccc(-n2ncc3c(N4CCCCCC4)ncnc32)cc1 | 16.5
30 | CCOC(=O)c1ccc(NC(=O)N2CCN(c3cccc(OC)c3)CC2)cc1 | -16.5
31 | COc1ccccc1C(=O)Oc1ccc2ccc(=O)oc2c1 | 10.5
32 | Cc1ccc(-c2cc(C(=O)N/N=C/c3ccccc3)n[nH]2)o1 | -12.6
33 | CCCc1nc2ccccc2c(=O)n1CCc1ccccc1 | -18.5
34 | O=C(c1ccc(=O)[nH]c1)N1CCN(S(=O)(=O)c2ccc3ccccc3c2)CC1 | -7.91
35 | CCOC(=O)c1cccnc1SC(CC)C(=O)NCc1ccco1 (centres unmarked) | -31.5
36 | Clc1cccc(C2Nc3cccc4cccc(c34)N2)c1 | 8.11
37 | CCOC(=O)NC1(C(F)(F)F)NC(=O)N(C2CCCCC2)C1=O (centres unmarked) | -3.7
38 | CCc1nc(OCCN(C)C)c2oc3ccccc3c2n1 | -4.1
39 | CCN1C(=O)CC(Sc2ccccc2C(=O)O)C1=O (centres unmarked) | -5.17
40 | O=C(c1ccc(C(F)(F)F)cc1)C1CCCN(C(=O)CN2CCCC2=O)C1 (centres unmarked) | 0.525
41 | COc1ccc(C2(C(=O)N3CCC(n4nc(-c5ccccc5)oc4=O)CC3)CC2)cc1 | 20.2
42 | Cl.Clc1ccc(CN2C3=NCCCN3c3ccccc32)cc1 | -75.1
43 | COc1ccc(C(=O)N2CCN(CCc3ccccc3)CC2)cc1[N+](=O)[O-] | -75.6
44 | COc1ccc(OCC(=O)N/N=C/c2ccsc2)cc1 | -26.6
